The other results are listed elsewhere or left out.
What was measured:
HSkMC = human skeletal muscle cells; assay: cytotoxicity call (relative viability < 0.9); conditions: 10 µM
HepG2 = assay: cytotoxicity call (relative viability < 0.9); conditions: 10 µM
S. aureus RN4220 = assay: growth inhibition call (relative growth <= 0.2); conditions: 50 µM

C[C@@H]1CN([C@@H](C)CO)C(=O)c2cc(NS(=O)(=O)c3cccs3)ccc2O[C@H]1CN(C)S(=O)(=O)c1cn(C)cn1
inactive: cytotoxicity call (HSkMC) | cytotoxicity call (HepG2) | growth inhibition call (S. aureus RN4220)

C[C@H]1CN([C@@H](C)CO)C(=O)c2cccc(NC(=O)Nc3ccc(C(F)(F)F)cc3)c2O[C@H]1CN(C)Cc1ccncc1
inactive: cytotoxicity call (HSkMC) | cytotoxicity call (HepG2) | growth inhibition call (S. aureus RN4220)

C[C@@H]1CN([C@@H](C)CO)C(=O)c2cc(NC(=O)c3ccncc3)ccc2O[C@H]1CN(C)S(=O)(=O)c1cn(C)cn1
inactive: cytotoxicity call (HSkMC) | cytotoxicity call (HepG2) | growth inhibition call (S. aureus RN4220)

COc1ccc(NC(=O)Nc2ccc3c(c2)C(=O)N([C@H](C)CO)C[C@@H](C)[C@H](CN(C)Cc2ccncc2)OCCCC[C@H](C)O3)cc1
inactive: cytotoxicity call (HSkMC) | cytotoxicity call (HepG2) | growth inhibition call (S. aureus RN4220)

CC(C)CC#Cc1ccc2c(c1)O[C@H](CN(C)C(=O)Cc1cccnc1)[C@H](C)CN([C@H](C)CO)S2(=O)=O
inactive: cytotoxicity call (HSkMC) | cytotoxicity call (HepG2) | growth inhibition call (S. aureus RN4220)

Cc1nc(=O)c(/C=N/O)c(O)[nH]1
inactive: cytotoxicity call (HSkMC) | cytotoxicity call (HepG2) | growth inhibition call (S. aureus RN4220)

NCc1c(Cl)cccc1Cl
inactive: cytotoxicity call (HSkMC) | cytotoxicity call (HepG2) | growth inhibition call (S. aureus RN4220)

C[C@H](CO)N1C[C@H](C)[C@@H](CN(C)C(=O)Nc2ccccc2)OCCCC[C@H](C)Oc2ccc(NC(=O)Nc3ccc(C(F)(F)F)cc3)cc2C1=O
inactive: cytotoxicity call (HSkMC) | cytotoxicity call (HepG2) | growth inhibition call (S. aureus RN4220)

Cc1ccc(S(=O)(=O)Nc2ccc3c(c2)C(=O)N([C@H](C)CO)C[C@@H](C)[C@@H](CN(C)C(=O)Nc2ccc(C(F)(F)F)cc2)O3)cc1
inactive: cytotoxicity call (HSkMC) | cytotoxicity call (HepG2) | growth inhibition call (S. aureus RN4220)

CN1CCN(C(=O)C[C@@H]2CC[C@@H]3[C@H](COc4ccc(NC(=O)C5CCOCC5)cc4C(=O)N3C)O2)CC1
inactive: cytotoxicity call (HSkMC) | cytotoxicity call (HepG2) | growth inhibition call (S. aureus RN4220)
